Measured values as given in the supplement of paper PMC4996465.
Viability of KB3-1 and Nalm-6 cells after 48 h of drug alone (CellTiter-Glo), 11 doses over about 4.5 log units. % of DMSO wells, lower = more cell loss; AC50 from the fitted curve, lower = more potent. No active / inactive call. Nalm-6 was screened in two runs. AC50 is listed only for well-fitted inhibitory curves. KB3-1 is a HeLa-derived carcinoma line, Nalm-6 a B-cell precursor leukaemia line.

Key:
Nalm-6 [1] = assay: log AC50 of viability decrease (48 h) (log10 M); higher = less potent
Protocol: (§1)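 Eleven-dose screen of the NCATS MIPE 3 library on cells without co-treatment; CellTiter-Glo after 48 h. AC50 from the curve fit; only inhibitory curves of the better fit classes are listed.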

KB3-1 [2] = assay: as above
Protocol: as §1

Nalm-6 [3] = assay: viability (% of DMSO control); higher = more viable cells
Protocol: (§2)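 Eleven-dose screen of the NCATS MIPE 3 library on cells without co-treatment; CellTiter-Glo after 48 h, as % of DMSO wells.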

KB3-1 [4] = assay: as above
Protocol: as §2

| SMILES | log AC50 of viability decrease (Nalm-6 [1]; run: 1) | log AC50 of viability decrease (Nalm-6 [1]; run: 2) | log AC50 of viability decrease (KB3-1 [2]) | viability (Nalm-6 [3]; run: 1, 0.00078 µM) [%] | viability (Nalm-6 [3]; run: 1, 0.00234 µM) [%] | viability (Nalm-6 [3]; run: 1, 0.00702 µM) [%] | viability (Nalm-6 [3]; run: 1, 0.0211 µM) [%] | viability (Nalm-6 [3]; run: 1, 0.0632 µM) [%] | viability (Nalm-6 [3]; run: 1, 0.19 µM) [%] | viability (Nalm-6 [3]; run: 1, 0.569 µM) [%] | viability (Nalm-6 [3]; run: 1, 1.71 µM) [%] | viability (Nalm-6 [3]; run: 1, 5.12 µM) [%] | viability (Nalm-6 [3]; run: 1, 15.4 µM) [%] | viability (Nalm-6 [3]; run: 1, 46.1 µM) [%] | viability (Nalm-6 [3]; run: 2, 0.00078 µM) [%] | viability (Nalm-6 [3]; run: 2, 0.00234 µM) [%] | viability (Nalm-6 [3]; run: 2, 0.00702 µM) [%] | viability (Nalm-6 [3]; run: 2, 0.0211 µM) [%] | viability (Nalm-6 [3]; run: 2, 0.0632 µM) [%] | viability (Nalm-6 [3]; run: 2, 0.19 µM) [%] | viability (Nalm-6 [3]; run: 2, 0.569 µM) [%] | viability (Nalm-6 [3]; run: 2, 1.71 µM) [%] | viability (Nalm-6 [3]; run: 2, 5.12 µM) [%] | viability (Nalm-6 [3]; run: 2, 15.4 µM) [%] | viability (Nalm-6 [3]; run: 2, 46.1 µM) [%] | viability (KB3-1 [4]; 0.00078 µM) [%] | viability (KB3-1 [4]; 0.00234 µM) [%] | viability (KB3-1 [4]; 0.00702 µM) [%] | viability (KB3-1 [4]; 0.0211 µM) [%] | viability (KB3-1 [4]; 0.0632 µM) [%] | viability (KB3-1 [4]; 0.19 µM) [%] | viability (KB3-1 [4]; 0.569 µM) [%] | viability (KB3-1 [4]; 1.71 µM) [%] | viability (KB3-1 [4]; 5.12 µM) [%] | viability (KB3-1 [4]; 15.4 µM) [%] | viability (KB3-1 [4]; 46.1 µM) [%] |
| --- | --- | --- | --- | --- | --- | --- | --- | --- | --- | --- | --- | --- | --- | --- | --- | --- | --- | --- | --- | --- | --- | --- | --- | --- | --- | --- | --- | --- | --- | --- | --- | --- | --- | --- | --- | --- |
| COC1=CC=C2/C3=N/CCN3\C(=N/C2=C1OC)NC(=O)C4=CC=CN=C4 [PIK-90] | -5.83 | -4.93 | -5.43 | 115 | 119 | 115 | 109 | 111 | 97.6 | 86.3 | 73.5 | 64.2 | 49.6 | 42.3 | 96.2 | 103 | 104 | 99.9 | 99.4 | 98.8 | 94.8 | 80.1 | 76.5 | 62.9 | 43.5 | 107 | 108 | 105 | 101 | 107 | 97.8 | 92.8 | 89.4 | 76.9 | 84.4 | 66.8 |
| O=[N+]([O-])c1cnc(Sc2nnc(O)n2-c2ccc3c(c2)OCCO3)s1 [BI-78D3] | -6.63 | -6.58 | -4.68 | 108 | 105 | 114 | 108 | 90.6 | 69.8 | 4.65 | 3.05 | 1.35 | 0.67 | -0.585 | 105 | 104 | 104 | 105 | 91.7 | 82.3 | 5.84 | 1.7 | 1.11 | 1.25 | -0.0168 | 102 | 108 | 101 | 103 | 97.3 | 96.4 | 101 | 101 | 95.9 | 84.5 | 44.7 |
| CC1(C)Cc2c(-c3ccccc3)c(-c3ccc(Cl)cc3)c(CC(=O)O)n2C1 [Licofelone] | -4.83 | -4.73 | -4.78 | 88.5 | 100 | 103 | 107 | 104 | 116 | 120 | 110 | 111 | 68.7 | 35.6 | 94.2 | 97.2 | 104 | 107 | 93.6 | 109 | 105 | 102 | 103 | 73.9 | 10.3 | 95.7 | 95.4 | 103 | 104 | 100 | 101 | 105 | 99.2 | 94.9 | 70.6 | 40.1 |
| CC(C)[C@H](C(=O)Nc1ccc(C(=O)NO)cc1)c1ccccc1 [AR-42] | -7.48 | -7.38 | -6.88 | 104 | 115 | 119 | 88 | 14 | 2.08 | 0.78 | 0.497 | 0.256 | -0.0154 | -0.543 | 108 | 116 | 114 | 92.1 | 30.3 | 5.62 | 2.63 | 2.38 | 2.3 | 1.7 | 0.859 | 101 | 101 | 98.9 | 86.9 | 73.7 | 46.5 | 30.9 | 21.6 | 14.3 | 16.9 | 9.22 |
| NC1=NC=C(C=C1)C2=CC=C3N=CC\4=C(N(C(=O)\C=C4)C5=CC(=CC=C5)C(F)(F)F)C3=C2 [Torin-2] | -7.53 | -7.73 | -7.28 | 68.9 | 59.9 | 55.7 | 45.9 | 27.3 | 17.9 | 12.9 | 10.9 | 9.27 | 8.18 | 3.99 | 83.3 | 73.2 | 62 | 46.9 | 29.3 | 15.8 | 9.9 | 6.18 | 6.13 | 4.94 | 2.36 | 69.8 | 64.7 | 50 | 45 | 45.8 | 37.4 | 28 | 24.1 | 23.7 | 22.6 | 6.79 |
| COc1ccc(OC)c(-c2nnc3ccc(-c4ccc(OC)c(O[C@@H]5CCOC5)c4)nn23)c1 | -4.98 | -5.08 | -5.08 | 108 | 117 | 107 | 118 | 108 | 105 | 106 | 84.6 | 81.7 | 28.1 | 12.3 | 99.4 | 99 | 101 | 104 | 96.3 | 101 | 98.6 | 69.3 | 68.4 | 21 | 6.69 | 102 | 107 | 106 | 108 | 112 | 107 | 102 | 78.4 | 70.8 | 39.9 | 19 |
| Cc1ccc(-c2ncn(-c3ccc(Nc4nccc(-c5cccc(N6CCOCC6)c5)n4)cc3)n2)cn1 [SR-3306] | -7.63 | -7.58 | -7.63 | 130 | 122 | 116 | 76.4 | 6.77 | 3.8 | 2.54 | 2.38 | 3.42 | 3.6 | 1.1 | 103 | 106 | 113 | 80.3 | 4.79 | 2.84 | 2.07 | 1.52 | 3.28 | 1.89 | -0.0862 | 102 | 103 | 101 | 62.8 | 25 | 23.6 | 26.7 | 29.2 | 8.82 | 8.34 | 5.07 |
| CCC(=O)N[C@H]1CC[C@H](C(=O)N(C)c2ccc(-c3nc4ccccc4o3)cc2)C1 [FASN BI] | -4.93 | -5.13 | -5.13 | 113 | 116 | 112 | 114 | 102 | 98.5 | 102 | 94.8 | 82.8 | 65.2 | 44.9 | 102 | 112 | 105 | 98.8 | 96.2 | 104 | 101 | 102 | 81 | 68.2 | 57.3 | 104 | 107 | 96.9 | 108 | 105 | 106 | 110 | 98.4 | 92 | 78.7 | 71 |
| C=CC(=O)Nc1cc2c(Nc3ccc(F)c(Cl)c3)ncnc2cc1OCCCN1CCOCC1 [Canertinib] | -4.88 | -4.73 | -4.58 | 125 | 117 | 124 | 126 | 105 | 113 | 104 | 81.1 | 66.3 | 45.7 | 0.968 | 111 | 113 | 110 | 115 | 90.7 | 105 | 98.7 | 81.8 | 73.8 | 50.5 | 1.65 | 102 | 98.6 | 103 | 103 | 96.5 | 100 | 102 | 98 | 97.2 | 89.9 | 1.97 |
| COc1cc2nc(N3CCCN(C)CC3)nc(NC3CCN(Cc4ccccc4)CC3)c2cc1OC | -5.63 | -5.68 | -4.88 | 108 | 101 | 101 | 114 | 103 | 95.5 | 92.5 | 65.3 | 11.9 | 6.56 | 1.34 | 101 | 96.2 | 102 | 99.8 | 96.6 | 89.7 | 84.3 | 62.2 | 6.97 | 6.14 | 1.16 | 99.1 | 103 | 100 | 99.7 | 101 | 108 | 103 | 101 | 84.7 | 38.4 | 2.61 |
